Data on 43 compounds can be found in PMC4336329 (PLoS ONE, 2015).

Molecules are shown by their SMILES. Out of some 310,000 compounds screened, about 14,000 (4.5%) showed an effect of 50% or more. The effect is printed as a negative number. The list shows a part of the results.
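Further: peak tail current of the secondary pulse compared with the same well before compound.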

This test deals with human ether-à-go-go-related gene (hERG) potassium channel (human, UniProt Q12809). In words: primary screen, population patch clamp on CHO cells stably expressing hERG.
Sequence of human ether-à-go-go-related gene (hERG) potassium channel (Q12809 whole entry, looked up): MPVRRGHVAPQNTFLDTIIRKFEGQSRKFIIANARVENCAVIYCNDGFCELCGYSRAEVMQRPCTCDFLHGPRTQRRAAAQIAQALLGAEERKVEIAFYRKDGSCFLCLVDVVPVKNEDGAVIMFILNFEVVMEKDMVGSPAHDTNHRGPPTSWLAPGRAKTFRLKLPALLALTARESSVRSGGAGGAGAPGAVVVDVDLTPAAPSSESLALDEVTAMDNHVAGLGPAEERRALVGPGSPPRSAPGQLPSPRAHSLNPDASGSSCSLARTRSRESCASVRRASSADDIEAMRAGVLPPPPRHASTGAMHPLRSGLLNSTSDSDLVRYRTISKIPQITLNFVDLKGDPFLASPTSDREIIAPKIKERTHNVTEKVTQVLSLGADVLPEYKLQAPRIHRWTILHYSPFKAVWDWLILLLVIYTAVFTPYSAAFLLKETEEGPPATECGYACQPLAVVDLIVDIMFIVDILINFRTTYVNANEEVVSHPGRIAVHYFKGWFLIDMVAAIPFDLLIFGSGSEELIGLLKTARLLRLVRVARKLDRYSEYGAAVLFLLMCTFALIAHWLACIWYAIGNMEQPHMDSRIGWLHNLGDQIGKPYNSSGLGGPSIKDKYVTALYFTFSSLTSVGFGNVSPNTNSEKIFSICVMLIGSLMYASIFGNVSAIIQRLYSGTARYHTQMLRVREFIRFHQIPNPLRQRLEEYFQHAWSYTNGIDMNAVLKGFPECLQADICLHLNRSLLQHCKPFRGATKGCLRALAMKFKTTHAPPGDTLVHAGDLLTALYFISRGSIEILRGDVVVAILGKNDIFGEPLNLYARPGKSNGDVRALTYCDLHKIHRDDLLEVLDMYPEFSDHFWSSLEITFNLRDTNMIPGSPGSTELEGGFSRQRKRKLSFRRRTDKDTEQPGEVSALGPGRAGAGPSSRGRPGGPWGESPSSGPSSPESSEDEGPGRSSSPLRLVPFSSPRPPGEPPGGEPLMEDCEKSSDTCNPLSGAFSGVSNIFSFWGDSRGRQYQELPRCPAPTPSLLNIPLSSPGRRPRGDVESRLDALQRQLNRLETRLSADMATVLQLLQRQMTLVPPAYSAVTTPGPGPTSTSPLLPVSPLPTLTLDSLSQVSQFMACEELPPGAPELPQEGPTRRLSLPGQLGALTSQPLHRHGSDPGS
`COc1cc(C(=O)NC2CCCCC2)ccc1OCc1ccc(Cl)cc1Cl`: the “hERG current change (%, negative = inhibition) at 10uM” value is 10.9%.
The value for `COc1ccccc1N1CCN(C(=O)Cn2nc3n(C)c4ccccc4n3c(=O)c2=O)CC1` was -7.89%; that for `COc1cccc(-n2ccnc2SCC(=O)Nc2nccs2)c1` was -6.22%; that for `COc1ccccc1-n1c(SCC(=O)NC(C)(C)C)nc(O)c(Cc2ccccc2)c1=O` was 5.22%.
For `Cc1ccc(NC(=O)Cn2cc(S(=O)(=O)c3ccc(C)cc3)c(=O)c3cc(F)ccc32)cc1` the value was -12.1%; for `Cc1cc(C)cc(Nc2ccc(C(=O)O)cc2[N+](=O)[O-])c1`, 14.4%.
For `O=C(Nc1ccccc1)N1CCn2c(nc3ccccc32)C1` the value was -12.9%; for `O=C(NCCc1ccc([N+](=O)[O-])cc1)c1ccccc1`, -11.7%; for `Nc1ccc(N2CCOCC2)cc1C(F)(F)F`, 22.2%.
For `O=C(Nc1cccc(Oc2ccc3c(c2)C(=O)NC3=O)c1)c1cccs1`, the “hERG current change (%, negative = inhibition) at 10uM” value is -17%.
For `COc1ccc2oc(C(=O)OCC(=O)NCCc3ccccc3)c(C)c2c1` the value was -3.25%.
For `CN1C(=O)C(=Cc2ccccc2OCc2ccc(Cl)cc2)C(=O)N(C)C1=O` the value was 7.86%; for `COC(c1ccccc1)c1nc2ccccc2[nH]c1=O` (stereo not shown), 12.2%.
The value for `CCn1nc(C)c(/C=N/NC(=O)Cc2ccc(Cl)cc2)c1C` was -21.2%; that for `COC(=O)C1=C(c2ccc(F)cc2OCc2ccccc2)C[C@@H]2CC[C@H]1N2C(=O)NCc1cccc(C(F)(F)F)c1` was 11.4%.
Regarding `C/C(=N\OCC(=O)Nc1nc2ccccc2s1)c1ccccc1`, the “hERG current change (%, negative = inhibition) at 10uM” value was -8.06%.
The value for `C=CCOc1ccc(/C=N/NC(=O)CN2CCOCC2)cc1OCC` was 12.4%; that for `CSc1nccc(Oc2ccc(C#N)cc2)n1` was -10.8%.
The value for `C[C@H](NC(=O)C1CCN(S(=O)(=O)c2ccccc2)CC1)C(=O)NCc1ccc(Cl)cc1Cl` was -34.5%.
For `Cc1ccc(CNC(=O)CCC2CCCN(Cc3cc4ccccc4o3)C2)o1` (stereo not shown) the value was -69.2%; for `CCC1CCCCN1C(=S)NC(=O)c1cccc([N+](=O)[O-])c1` (stereo not shown), 17.1%; for `Cc1nn(-c2ccc(Cl)cc2)c(Cl)c1/C=N/NC(=O)c1ccc(NS(=O)(=O)c2cccs2)cc1`, 2.4%.
Take `COc1cccc(-n2c(C)c(C(C)=O)c(C(C)=O)c2C)c1`: the “hERG current change (%, negative = inhibition) at 10uM” value was 0.658%.
Take `Cc1nnc(C)n1/N=C/c1ccc(O)cc1`: the “hERG current change (%, negative = inhibition) at 10uM” value worked out at 3.42%.
For `Cc1c(Cl)c(C(F)(F)F)nn1CC(=O)NCc1ccco1` the value was 11.8%.
As to `Cc1ccccc1NC(=O)C1c2cccc[n+]2CC(=O)N1c1c(C)cccc1C.[I-]` (stereo not shown), the “hERG current change (%, negative = inhibition) at 10uM” value was determined as 13.8%.
For `CCOC(=O)c1sc(NC(C)=O)nc1-c1ccccc1` the value was 4.96%; for `COc1ccc(N2CSC3=C(C#N)C(c4cc(OC)ccc4OC)CC(=O)N3C2)c(OC)c1` (stereo not shown), -17.1%; for `CCNC(=O)CC1C(=O)N(c2ccc(F)cc2)C(=S)N1CCc1ccncc1` (stereo not shown), -22.3%.
The value for `CCc1ccc2nc(N(CCN(C)C)C(=O)c3ccc4ncsc4c3)sc2c1.Cl` was -60.6%.
On to `CN(C)CCn1c(NC(=O)c2ccc(Cl)cc2)nc2ccccc21`, for which the “hERG current change (%, negative = inhibition) at 10uM” value was -20.9%.
For `OC[C@@H]1CCCN1Cc1nc(-c2cccs2)no1` the value was 16.3%; for `Cn1ncc(C#N)c1/N=C/N1CCCCC1`, 10.6%.
With `CC(C)(C)c1ccc(C(=O)OC/C(O)=C(\C#N)c2nc3ccccc3s2)cc1`, the “hERG current change (%, negative = inhibition) at 10uM” value is reported as 5.3%.
The value for `Fc1ccc(-c2ccnn2-c2ccccc2)cc1` was 14.5%.
For `Cc1cc(C(=O)NNC(=S)NCc2ccco2)n(C)n1.c1ccccc1` the value was 14.6%.
For `O=c1[nH]c2ccc(S(=O)(=O)N3CCN(c4ccccc4)CC3)cc2[nH]c1=O` the value was 0.0563%; for `CC(=O)c1c(C)oc2c1cc(O)c1ccccc12`, 3.2%.
On to `COc1ccc(CNC(=O)CCNS(=O)(=O)c2cccc3nsnc23)cc1`, for which the “hERG current change (%, negative = inhibition) at 10uM” value was -1.19%.
For `COc1ccc(N=C2SC(C(=O)Nc3ccc(OC)cc3)CC(=O)N2CCN2CCOCC2)cc1` (stereo not shown) the value was -39%; for `COC(=O)c1cc(S(=O)(=O)NCc2cc(OC)c(OC)c(OC)c2)cn1C`, 12.5%; for `Cc1ccc(-n2[nH]c(C)c(C=Nc3ccc(S(=O)(=O)Nc4nc(C)cc(C)n4)cc3)c2=O)c(C)c1`, -1.85%.
For `Cc1ccnc(SCc2cc(=O)c(OC(=O)c3ccc(S(=O)(=O)N(C)C)cc3)co2)n1`, the “hERG current change (%, negative = inhibition) at 10uM” value is listed as -36.4%.
